The assay deals with T1, recombinant ataxin‐3 (UniProt P54252 1-361).
T1 construct: the DUB assay names 'recombinant GST-ataxin-3'; It may be the same GST fusion; also called GST‐ataxin‐3 (in the DUB assay); source: recombinant
The experiment in a line: pull-down; recombinant SUMO1 immobilized on agarose beads incubated with 1 ug recombinant ataxin-3 for 2 h at 4°C; buffer A (50 mM Tris pH 7.5, 150 mM NaCl, 1 mM DTT, 0.5% NP-40); six washes. Conditions: both partners purified.

B1: recombinant SUMO1 immobilized on agarose beads (natural protein)
chain: not shown
notes: SUMO1, the ubiquitin-like modifier; In the DUB assay a soluble recombinant His-SUMO1 (Enzo Life Sciences) was used instead of the beads; also called SUMO1 beads; source: bought: Enzo Life Sciences (recombinant, immobilized on agarose beads)
On to B1, for which the binding result is given as “binds”.
